{
  "source": "PubChem BioAssay AID493208",
  "about": "(National Center for Advancing Translational Sciences (NCATS), 2011)",
  "note": "Hit rate of the full screen: of about 44,000 compounds, about 340 (0.77%) were called active. About 5% were inconclusive and are not listed. The call rests on the fitted dose curve; in most records, active means well fitted inhibition curve with a large enough effect; inconclusive means small, poorly fitted or top-dose-only effect; inactive means flat fitted curve, though single readings scatter. This is one part of the list.",
  "data": [
    {"experiment": "Acumen qHTS Assay for Inhibitors of the mTORC1 Signaling Pathway in MEF (Tsc2-/-, p53-/-) Cells: Sytravon; further: nearly all actives have a fitted effect of over 50% in size", "settings": "phospho-rpS6 immunofluorescence/PI, 24 h; series mostly up to 38.3 µM; activity change, negative = inhibition: at the top concentration", "procedure,_shortened": "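Read-out: phospho-S6 Alexa-488 intensity over PI intensity per well, scored as % active cells using thresholds from rapamycin (7.5 nM) and DMSO controls. Tsc2-/-, p53-/- MEFs exposed to compound for 24 h; PI cell count recorded as viability.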", "values": [
      {"smiles": "O=C(CCC(=O)OCC(=O)c1ccc(Cl)cc1)Nc1ccc(Oc2ccccc2)cc1", "activity change, negative = inhibition": "inactive: 3.41%"},
      {"smiles": "CCCn1cc(S(=O)(=O)c2cc(C)ccc2C)c(=O)c2cc(F)c(N3CCOCC3)cc21", "activity change, negative = inhibition": "inactive: 0.886%"},
      {"smiles": "CCc1ccc2occ(CC(=O)Nc3c(C(=O)Nc4ccc(C)cc4)oc4ccccc34)c2c1", "activity change, negative = inhibition": "inactive: -21.9%"},
      {"smiles": "CCCNc1ncnc2onc(C)c12", "activity change, negative = inhibition": "inactive: -3.04%"},
      {"smiles": "Cc1ccc(C(=O)n2nc(C)c(S(=O)(=O)N3CCOCC3)c2C)cc1", "activity change, negative = inhibition": "inactive: 0.141%"},
      {"smiles": "Cc1ccc(CSc2nc(-c3cccs3)ccc2C#N)cc1", "activity change, negative = inhibition": "inactive: 5.37%"},
      {"smiles": "COc1ccc(-n2nc(C(=O)Nc3ccccc3OC)c3c4ccccc4n(C)c3c2=O)cc1Cl", "activity change, negative = inhibition": "inactive: -6.16%"},
      {"smiles": "COc1cccc(-c2nn(C)c3sc(C(=O)NCCc4ccc(Cl)cc4)cc23)c1", "activity change, negative = inhibition": "inactive: -3.74%"},
      {"smiles": "Cc1cc(S(=O)(=O)Nc2ccc(-c3ccc(N4CCCCC4)nn3)cc2)c(C)cc1Cl", "activity change, negative = inhibition": "inactive: -19.6%"},
      {"smiles": "Cc1nnc(SCc2ccc(Cl)cc2)c2cc3occc3n12", "activity change, negative = inhibition": "inactive: -3.37%"},
      {"smiles": "Cc1cccc(N2CCN(c3cc(C)nc4c(-c5ccc(Cl)cc5)c(C)nn34)CC2C)c1", "note": "(configuration not stated)", "activity change, negative = inhibition": "inactive: -6.5%"},
      {"smiles": "CCOc1ccc(NC(=O)NCCCN2CCN(c3ccc(F)cc3)CC2)cc1", "activity change, negative = inhibition": "inactive: -18.4%"},
      {"smiles": "COC(=O)c1nc2n(n1)C(c1cccc(Cl)c1)C(C(=O)Nc1ccccc1OC)=C(C)N2", "note": "(configuration not stated)", "activity change, negative = inhibition": "inactive: 6.02%"},
      {"smiles": "Cc1cccc(C)c1NC(=O)C(NS(=O)(=O)c1ccc2c(c1)CCC(=O)N2)c1ccccc1", "note": "(configuration not stated)", "activity change, negative = inhibition": "inactive: -4.86%"},
      {"smiles": "Cc1c2cnn(-c3ccccc3)c(=O)c2c(C)n1CCCC(=O)Nc1cc(F)ccc1F", "activity change, negative = inhibition": "inactive: -1.91%"},
      {"smiles": "CCN(c1cccc(C)c1)S(=O)(=O)c1nnc(NC(=O)C2CCCCC2)s1", "activity change, negative = inhibition": "inactive: 6.87%"},
      {"smiles": "O=C(CSC1=Nc2ccccc2C2=NC(CC(=O)NC3CCCCC3)C(=O)N12)Nc1ccc(F)cc1", "note": "(configuration not stated)", "activity change, negative = inhibition": "inactive: -3.31%"},
      {"smiles": "O=C(CSc1nc2ccccc2nc1Cc1ccc(Cl)cc1)N1CCc2ccccc21", "activity change, negative = inhibition": "inactive: 0.256%"},
      {"smiles": "CCc1ccc(CNC(=O)CN2C(=O)c3cccnc3Oc3ccc(Cl)cc32)cc1", "activity change, negative = inhibition": "inactive: 3.15%"},
      {"smiles": "Cc1ccc(-c2nc(C)c(CCNC(=O)c3ccco3)s2)cc1", "activity change, negative = inhibition": "inactive: 0.362%"},
      {"smiles": "COc1ccc(N2CCN(S(=O)(=O)c3ccc4oc(=O)c5ncn(C)c5c4c3)CC2)cc1", "activity change, negative = inhibition": "inactive: 0.858%"},
      {"smiles": "CCOc1ccc(NC(=O)CSc2ncc3c(n2)-c2ccc(Cl)cc2N(Cc2ccccc2)S3(=O)=O)cc1", "activity change, negative = inhibition": "inactive: -4.26%"},
      {"smiles": "COc1ccc(-c2nc3sc(CCNC(=O)c4cc(OC)c(OC)c(OC)c4)c(C)n3n2)cc1", "activity change, negative = inhibition": "inactive: -2.79%"},
      {"smiles": "COc1ccc(C)cc1NC(=O)c1oc2ccc(S(=O)(=O)N3CCCCC3)cc2c1C", "activity change, negative = inhibition": "inactive: 2.89%"},
      {"smiles": "Cc1ccc(C)c(N2CCN(S(=O)(=O)c3cc(Br)cc4c3N(C(=O)C3CC3)CC4)CC2)c1", "activity change, negative = inhibition": "inactive: 0%"},
      {"smiles": "COc1cc(C(=O)NCCCc2nc3ccccc3n2CC(C)C)cc(OC)c1OC", "activity change, negative = inhibition": "inactive: -7.07%"},
      {"smiles": "O=C(C1CCN(S(=O)(=O)c2ccc(Br)s2)CC1)N1CCN(c2cccc(Cl)c2)CC1", "activity change, negative = inhibition": "inactive: 0.38%"},
      {"smiles": "Cc1ccc(Sc2c(C)nn(C(=O)COc3ccccc3Br)c2C)cc1", "activity change, negative = inhibition": "inactive: -2.43%"},
      {"smiles": "CCOC(=O)c1ccc(NC(=O)CCn2c(=O)c3cccn3c3ccccc32)cc1", "activity change, negative = inhibition": "inactive: 0%"},
      {"smiles": "CCOc1ccc(CCNC(=O)c2sc3nc4n(c(=O)c3c2C)CCCC4)cc1OCC", "activity change, negative = inhibition": "inactive: -2.42%"},
      {"smiles": "Cc1ccc2[nH]c(CSc3nnc(NC(=O)COc4ccccc4)s3)cc(=O)c2c1", "activity change, negative = inhibition": "inactive: -17.7%"},
      {"smiles": "CCOC(=O)c1sc2ncn(CC(=O)Nc3ccc(N(C)C)cc3)c(=O)c2c1C", "activity change, negative = inhibition": "inactive: -6.25%"},
      {"smiles": "O=C(Nc1nc2ccc(S(=O)(=O)N3CCCC3)cc2s1)c1cccc(F)c1", "activity change, negative = inhibition": "inactive: 2.81%"},
      {"smiles": "CCS(=O)(=O)N1CCc2cc(C(=O)Nc3ccc(OC)c(Cl)c3)ccc21", "activity change, negative = inhibition": "inactive: -5.22%"},
      {"smiles": "CCCCn1cc(S(=O)(=O)c2ccc(C)c(C)c2)c(=O)c2cc(F)c(N3CCCC(C)C3)cc21", "note": "(configuration not stated)", "activity change, negative = inhibition": "inactive: 4.16%"},
      {"smiles": "COc1ccc(OC)c(CNC(=O)c2nn(-c3ccc(OC)c(Cl)c3)c(=O)c3c2c2ccccc2n3C)c1", "activity change, negative = inhibition": "inactive: -6.62%"},
      {"smiles": "CCOc1ccc2nc(N3CCCC(C(=O)Nc4c(C)cccc4C)C3)sc2c1", "note": "(configuration not stated)", "activity change, negative = inhibition": "inactive: -0.0902%"},
      {"smiles": "CCOc1ccc(N(C(=O)CC(C)C)S(=O)(=O)c2ccc3c(c2)oc(=O)n3C)cc1", "activity change, negative = inhibition": "inactive: -6.14%"},
      {"smiles": "Cc1ccc(-c2nc3scc(CCNC(=O)Cc4ccc(Cl)cc4)n3n2)cc1", "activity change, negative = inhibition": "inactive: 5.44%"},
      {"smiles": "COc1ccc(CCNC(=O)CCCn2c(=O)c3ccccc3n(Cc3cccc(Cl)c3)c2=O)cc1OC", "activity change, negative = inhibition": "inactive: -0.054%"},
      {"smiles": "CCC(=O)Nc1c(C(=O)N2CCN(c3ccc(F)cc3)CC2)oc2ccccc12", "activity change, negative = inhibition": "inactive: -1.02%"},
      {"smiles": "COc1ccc(CCNS(=O)(=O)c2ccc3c(c2)CC(C)N3C(=O)C2CCC2)cc1OC", "note": "(configuration not stated)", "activity change, negative = inhibition": "inactive: -6.01%"},
      {"smiles": "CCOc1ccc(CC(=O)NCCc2csc(-c3ccc(C)cc3)n2)cc1", "activity change, negative = inhibition": "inactive: -19.1%"},
      {"smiles": "COc1ccc(S(=O)(=O)n2nc(C)c(S(=O)(=O)N3CCC(C)CC3)c2C)cc1C", "activity change, negative = inhibition": "inactive: 7.62%"},
      {"smiles": "CCN(CC)c1ccc(NS(=O)(=O)c2ccc(-c3cnc(C4CC4)o3)cc2)c(C)c1", "activity change, negative = inhibition": "inactive: 0%"},
      {"smiles": "O=C1NCCN(Cc2ccc(F)cc2)C1=O", "activity change, negative = inhibition": "inactive: 0%"},
      {"smiles": "CCCn1c(SCc2nc(-c3ccc(OC)cc3OC)no2)nnc1-c1ccc(Cl)cc1", "activity change, negative = inhibition": "inactive: -5.95%"}
    ]}
  ]
}
